Measured values reported in PubChem BioAssay (Tox21).
“And” between values parts separate entries of the source, which are not always exact repeats. Equal entries are not always repeated. Inconclusive results, whose numbers are uncertain, are shown with a selection of clear calls. For part of these data: A potency beside an inconclusive call is a rough fit, not a confirmed value. The source made the active and inactive calls. Unless noted, the call rests on the fitted dose curve; in most records, active means well fitted cell-killing curve with a large enough effect in the repeat runs; inconclusive means weak or mixed curves, or effect the other way; inactive means flat fitted curve, though single readings scatter.

test system: not listed separately; test: qHTS assay to identify small molecule agonists of the TGF-beta/Smad signaling pathway - cell viability counter screen (AID 1346829); details: SBE-bla HEK293T viability, CellTiter-Glo luminescence, 5 h; series mostly up to 76.8 µM; further: nearly all actives have a fitted effect of over 45% in size; further: potency means the concentration at half of the fitted maximal effect
Summary of the method: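 Same-well cytotoxicity: CellTiter-Glo added after the 2 hr room-temperature beta-lactamase substrate step, luminescence measured 30 min later; cells had 5 hr of compound at 37 C.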
Tags describe the fitted curve by direction and shape or compound fluorescence and quenching.

| Structure (SMILES) | Potency |
| --- | --- |
| O=Cc1ccc(F)cc1 | inconclusive: 12.3 µM [cytotoxic, single point] |
| CS(=O)(=O)OCCCCOS(C)(=O)=O | inconclusive: 2.19 µM [cytotoxic, single point] |
| CC(=O)CCC(=O)O | inconclusive: 25.7 µM [rising, single point] |
| CCCCCCOC(=O)CCCCC | inactive |
| Cc1cc(C)c(O)c(C)c1 | inactive |
| CC1CCC(C(C)CS)CC1S (stereo not given) | active: 54.9 µM |
| COCCOc1cc2cc(C(=O)NC3CCN(C(C)C)CC3)n(CC(=O)Nc3ccc(Cl)cn3)c2cn1 | inactive |
| C1CN(SSN2CCOCC2)CCO1 | inconclusive: 61 µM [cytotoxic, partial curve, poor fit] |
| CC[N+](CC)(CCNC(=O)C(=O)NCC[N+](CC)(CC)Cc1ccccc1Cl)Cc1ccccc1Cl | inactive |

test system: not listed separately; test: qHTS assay to identify small molecule agonists of the TGF-beta/Smad signaling pathway (AID 1346859; active means well fitted activation curve with a large enough effect in the signal ratio in the repeat runs, not every such curve was filed as active; inconclusive means weak or mixed curves; the % refers to the signal ratio; further: potency means the concentration at half of the fitted maximal effect; on activation: on the % scale 0 is the no-effect control and ±100 the full control effect); details: SBE-bla HEK293T, TGF-beta/Smad beta-lactamase reporter, 5 h; activation: at 76.8 µM (top of the series) unless noted
Summary of the method: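 Dual-wavelength fluorescence (460/530 nm emission) quantified beta-lactamase expression under the Smad binding element in HEK 293T cells following 5 hr compound treatment at 37 C.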

| Structure (SMILES) | Potency | activation |
| --- | --- | --- |
| Nc1ccn([C@H]2CS[C@@H](CO)O2)c(=O)n1 | inactive |  |
| O=C(O)Cc1cn(-c2ccccc2)nc1-c1ccc(Cl)cc1 | inconclusive: 23.9 µM |  |
| O=C(O)Cn1cnnn1 | inactive |  |
| CCCCCCCCOS(=O)(=O)O | inactive |  |
| CC(NN)c1ccccc1 (stereo not given) |  | inactive: 1.03% [at 15.8 µM] |
| COC(=O)CCS | inactive |  |
| C=C(C)C(=O)OCC(CC)(COC(=O)C(=C)C)COC(=O)C(=C)C | inconclusive: 22.2 µM [rising, partial curve] and inconclusive: 21.5 µM [rising, partial curve] |  |
| C1CN(SSN2CCOCC2)CCO1 | inconclusive: 61 µM and inconclusive: 61.6 µM |  |
| CN(C)C(=O)Oc1ccc[n+](C)c1 | inactive |  |
| CC1(C)S[C@@H]2[C@H](NC(=O)[C@H](N)c3ccccc3)C(=O)N2[C@H]1C(=O)O | inactive |  |

target: Thyrotropin-releasing hormone receptor (Homo sapiens) (UniProt P34981); test: qHTS assay to identify small molecule antagonists of the thyrotropin-releasing hormone receptor (TRHR) signaling pathway (AID 1346877; active means well fitted inhibition curve with a large enough effect in the repeat runs, not every such curve was filed as active; inconclusive means weak or mixed curves; further: on the % scale 0 is the no-effect control and ±100 the full control effect); details: TRHR-HEK293, TRH-induced calcium fluorescence, antagonist mode; series mostly up to 51.3 µM
Sequence of UniProt P34981 (P34981 whole entry, looked up): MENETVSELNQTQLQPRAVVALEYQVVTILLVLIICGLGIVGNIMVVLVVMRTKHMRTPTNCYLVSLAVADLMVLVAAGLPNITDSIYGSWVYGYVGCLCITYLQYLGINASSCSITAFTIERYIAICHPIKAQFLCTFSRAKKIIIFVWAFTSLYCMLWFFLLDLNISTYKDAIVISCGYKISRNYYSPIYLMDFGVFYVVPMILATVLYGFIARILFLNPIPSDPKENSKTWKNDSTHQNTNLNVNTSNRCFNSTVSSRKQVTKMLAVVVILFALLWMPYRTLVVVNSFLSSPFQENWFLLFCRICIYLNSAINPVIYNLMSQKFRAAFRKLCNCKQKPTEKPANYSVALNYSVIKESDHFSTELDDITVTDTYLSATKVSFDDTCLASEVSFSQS
Summary of the method: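 Overnight-plated (18 h, 37 °C) HEK293 cells expressing TRHR were dye-loaded 2 h, treated with compound, then stimulated with TRH at 1 nM final. Fluorescence intensity was captured every second for 3 min.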

| Structure (SMILES) | Potency | activity, negative = inhibition |
| --- | --- | --- |
| O=Cc1ccc(F)cc1 | inactive |  |
| CCCCCCCCCCCCCCCC(=O)OC |  | inactive: 0.477% [at 10.5 µM] |
| CCCCC=O | inactive |  |
| CC(C)C(=O)OCCOc1ccccc1 | inactive |  |

test system: not listed separately; test: qHTS assay to identify small molecule antagonists of the TGF-beta/Smad signaling pathway (AID 1346924; active means well fitted inhibition curve with a large enough effect in the signal ratio in the repeat runs, not every such curve was filed as active; inconclusive means weak or mixed curves; the % refers to the signal ratio; further: potency means the concentration at half of the fitted maximal effect); details: SBE-bla HEK293T, TGF-beta/Smad reporter, beta-lactamase ratio; activity, negative = inhibition: at 76.8 µM (top of the series) unless noted
Summary of the method: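 Read-out was FRET-substrate fluorescence (405 nm excitation; 460 and 530 nm emission) after 2 h at room temperature. Before that, cells carrying a Smad-binding-element beta-lactamase reporter in HEK 293T had been stimulated 5 h at 37 C with TGF-beta1 (0.25 ng/mL addition solution) in the presence of test compound.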

| Structure (SMILES) | activity, negative = inhibition | Potency |
| --- | --- | --- |
| CN(C)CCCNCCCN(C)C | inconclusive: -0.905% |  |
| C=CC(=O)OCCCCCCCCCC | inconclusive: -55.1% |  |
| O=C(O)Cc1cn(-c2ccccc2)nc1-c1ccc(Cl)cc1 | inconclusive: 2.25% [at 35.3 µM] |  |
| C[C@H]1C[C@H](O)c2ccsc2S1(=O)=O | inconclusive: -15% [at 35.3 µM] |  |
| C=C(C)C(=O)OCC(CC)(COC(=O)C(=C)C)COC(=O)C(=C)C |  | inconclusive: 17.7 µM [fluorescent, full curve] and inconclusive: 17.1 µM [fluorescent] |
| Cc1c(C(N)=O)cc([N+](=O)[O-])cc1[N+](=O)[O-] | inconclusive: -20% |  |
| O=c1oc(=O)c2cc3c(=O)oc(=O)c3cc12 | inconclusive: 7.11% |  |
